The record followed here is publication PMC4242493.

This is one part of the list. The list includes weakly bound sequences.

For this test, the target named is MaxL homodimer (UniProt P61244). The test can be described thus: universal protein-binding microarray (PBM). To be noted: PBS-based mixture, 10 nM His-tagged protein dimer, 2% milk, 200 ng/uL BSA, 50 ng/uL salmon testes DNA, 0.02% TX-100; detection with Alexa 488 anti-His …; high values mean tight binding; most listed sequences are background and not binding sites; double strand, one strand shown.
Chain of UniProt P61244 (P61244 whole entry): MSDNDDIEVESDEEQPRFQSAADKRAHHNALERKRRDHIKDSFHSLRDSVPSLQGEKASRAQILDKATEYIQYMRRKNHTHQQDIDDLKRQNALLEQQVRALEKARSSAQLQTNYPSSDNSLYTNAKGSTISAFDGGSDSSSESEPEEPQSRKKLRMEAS
As to GGATTGCC, the binding signal (normalized occupancy) came to 0.0701.
As to GTACTGTA, the binding signal (normalized occupancy) is 0.0787.
To AAATCCGC belongs 0.0712; to CACCTCTC, 0.0733; to CAAGAACC, 0.076.
With ACTGTGTG the figure was 0.0821; with CCAGAGGA, 0.0737; with AGTACCTA, 0.0751.
To CAAGATGC belongs 0.0794.
Consider ACAAGGTG, for which the binding signal (normalized occupancy) came out at 0.0843.
Regarding AAGACACT, the binding signal (normalized occupancy) stood at 0.075.
To AAGTGTGC belongs 0.0869; to GGTGAGCA, 0.0759.
As for CTCATGGA, the binding signal (normalized occupancy) was 0.0927.
With GCCCTGAC the figure was 0.0756.
To GGAGCTTA belongs 0.0698.
Turning to ATTCCAAT, the binding signal (normalized occupancy) is 0.0727.
Turning to ACTGCTGA, the binding signal (normalized occupancy) was determined as 0.0731.
On to ACGAGGCC, for which the binding signal (normalized occupancy) was 0.075.
With AGTAAAGC the figure was 0.072; with GCTCGGGA, 0.0672.
To CATACGAA belongs 0.0771; to CAGGGGCC, 0.0688.
To CCTTACAC belongs 0.0778; to ACGCATCA, 0.0829.
For the sequence AAACAGAT, the binding signal (normalized occupancy) was 0.0748.
To AGAAGGAG belongs 0.0786.
As for AAAGTGTT, the binding signal (normalized occupancy) turned out to be 0.0727.
For the sequence GCCTGACC, the binding signal (normalized occupancy) turned out to be 0.0702.
With GATAAGGA the figure was 0.0769; with CCGCTAAC, 0.0673.
With ACTCTCGG the figure was 0.0713; with TCAACGCA, 0.0747; with TAAGTGGA, 0.0727.
With CATGATAA, the binding signal (normalized occupancy) turned out to be 0.0909.
With GTATTCAC the figure was 0.0768; with AACGGTGT, 0.0796.
For the sequence ATGCCAGC, the binding signal (normalized occupancy) worked out at 0.0726.
In the case of CAGCGCTC, the binding signal (normalized occupancy) came to 0.0684.
With CGCGTTTA the figure was 0.081.
Take ACTATATG: the binding signal (normalized occupancy) is 0.0828.
Turning to ATTACTCC, the binding signal (normalized occupancy) turned out to be 0.0749.
With AGTGGGAC the figure was 0.077; with CAATTATC, 0.0791.
To CAGGCCCG belongs 0.0665; to AAGTTAAA, 0.0718.
Turning to CTCAGTTC, the binding signal (normalized occupancy) amounted to 0.0707.
To CACTAGAC belongs 0.077; to GAGTCGGA, 0.0696; to ACCATATG, 0.118.
To GTTATGCA belongs 0.0792; to ACCAAAGT, 0.0662; to ATACATAA, 0.0869.
With CGGTTGTC the figure was 0.0727.
As to CAGGCAGC, the binding signal (normalized occupancy) is 0.0731.
To AACTTGAA belongs 0.0719; to CCCAGGAG, 0.0669; to ACATTGGA, 0.0847.
On to ACTTTTGG, for which the binding signal (normalized occupancy) was found to be 0.0711.
With AGCCTTTC the figure was 0.0701; with CTTAGAGA, 0.0697.
To CTGGCCTA belongs 0.0713; to CGCTGACA, 0.0773; to ACTAGCAC, 0.0767.
For TATAGGGA, the binding signal (normalized occupancy) was 0.0811.
With ATCTACTC the figure was 0.0799; with AAAAAGAT, 0.077; with ATAACTGC, 0.0796.
To ATTCACAA belongs 0.084; to ATCCAGAA, 0.0751; to TACGCCCA, 0.0755.
With CACTGAGG the figure was 0.0721; with CGCTGCAC, 0.0743.
Take ATGGTAGC: the binding signal (normalized occupancy) is 0.0821.
With AATGCCTG the figure was 0.0727; with AAACTTAC, 0.0738.
With AGGCGGAC, the binding signal (normalized occupancy) worked out at 0.0697.
For TACTCGAA, the binding signal (normalized occupancy) worked out at 0.0713.
For the sequence AACTGTTC, the binding signal (normalized occupancy) came out at 0.0691.
To AAGAGACT belongs 0.072.
To AGGGTTAG belongs 0.08; to ATCATTGC, 0.0812; to ACTACCTA, 0.0763.
In the case of AGAGTCCA, the binding signal (normalized occupancy) turned out to be 0.0717.
TCGGACCA: the binding signal (normalized occupancy) was found to be 0.0693.
For GGAAGATA, the binding signal (normalized occupancy) came out at 0.0808.
Turning to AACTGCCA, the binding signal (normalized occupancy) was 0.0754.
With ATTGGTCC the figure was 0.0741; with CAGTAGCA, 0.0711.
To ATCCCAAG belongs 0.0746; to TCGAAAAA, 0.0763; to AATACACC, 0.0826.
To GAATACCA belongs 0.0761; to ATATTGGA, 0.088.
For AATGGCCG, the binding signal (normalized occupancy) stood at 0.0718.
With GCATCATA the figure was 0.0881; with GCGATGAA, 0.0786; with ACGAACGT, 0.0781.
For the sequence CATTTTAG, the binding signal (normalized occupancy) is 0.0766.
In the case of ATGAAGCG, the binding signal (normalized occupancy) worked out at 0.0749.
Consider ATCCATAC, for which the binding signal (normalized occupancy) was found to be 0.0815.
To GTCTGGCA belongs 0.0715.
Take AAGTTGTA: the binding signal (normalized occupancy) is 0.0716.
To CGATGTAG belongs 0.0791; to AGAACTGG, 0.066; to CGGATCAG, 0.0697.
Consider CCCACGCG, for which the binding signal (normalized occupancy) worked out at 0.148.
With ACCCATGG the figure was 0.0853; with ACCACGGA, 0.0736.
To ACCGCTAA belongs 0.0708; to GAGCATAA, 0.0797; to CGAGTCTC, 0.0699.
With GTTACTCA the figure was 0.0776; with CTAACTCC, 0.0699.
For GGATATCC, the binding signal (normalized occupancy) stood at 0.0758.
Take CAGGTGTA: the binding signal (normalized occupancy) was determined as 0.0957.
To AGAACAAA belongs 0.0694; to ACGTGGGA, 0.0998; to AACAGATC, 0.0758.
With GAATCCGA the figure was 0.0696; with AGGTCACT, 0.0721; with TACCACTA, 0.0786.
Consider ATGTTATA, for which the binding signal (normalized occupancy) was 0.0873.
To ATAATGGG belongs 0.0788; to ATAGAAAT, 0.078.
To ACTGTCTC belongs 0.075; to TACGTCGA, 0.0753; to CACATCAA, 0.0801.
To GTTCTCAA belongs 0.0761; to AGCTAAGG, 0.0679; to AAGAAAGC, 0.071.
For the sequence TGAGAAAA, the binding signal (normalized occupancy) was found to be 0.0784.
With GATATCAC the figure was 0.0837; with CGAGATCG, 0.0689; with CCTTCGTC, 0.0764.
For GCTATAAC, the binding signal (normalized occupancy) was 0.0813.
Regarding AGCTGCAC, the binding signal (normalized occupancy) is 0.0777.
In the case of ACGGGGAC, the binding signal (normalized occupancy) is 0.0795.
For the sequence GAGGTAAC, the binding signal (normalized occupancy) is 0.077.
For TACTGCGA, the binding signal (normalized occupancy) worked out at 0.0752.
With TTATGCAA the figure was 0.0783; with CGCGGTAC, 0.0731.
To GGATTAAC belongs 0.0813; to CAATATGC, 0.0798.
To ATTCGGAG belongs 0.0698; to CATGACTC, 0.0838.
As for CATCGCGC, the binding signal (normalized occupancy) is 0.0696.
To AAATTAAG belongs 0.0754; to ATCCGCAC, 0.085; to GTGGCGAA, 0.0773.
Consider AAAGAATA, for which the binding signal (normalized occupancy) was determined as 0.0779.
With GGTACCCA the figure was 0.0727; with AATACAAT, 0.0764.
With TACCCTGA, the binding signal (normalized occupancy) came out at 0.0756.
With CGGTCGTA the figure was 0.0694; with GGCATACC, 0.0768; with CGACTCAA, 0.0754.
To ATGCTTTG belongs 0.0774.
To GCCATATA belongs 0.0818; to ATACACAG, 0.081.
For AGAGGAGG, the binding signal (normalized occupancy) was 0.0706.
To AAAATCAG belongs 0.0774; to CTGTCTTC, 0.0686.
For the sequence ACCTGCGC, the binding signal (normalized occupancy) was determined as 0.0702.
To AGTCCAAC belongs 0.0682; to TACACGTA, 0.083; to ATACTGCA, 0.0761.
As for CCGGAGTC, the binding signal (normalized occupancy) was 0.0696.
To CGGTGACC belongs 0.0718; to ATGACAGC, 0.0803; to ACTAAGTG, 0.0769.
Turning to CCTCGAGC, the binding signal (normalized occupancy) was 0.0705.
